Reference: ChEMBL document CHEMBL1201862, “PubChem BioAssay data set” (2004)
Several values for one entry are separate records, joined by “and”; a condition that tells them apart may be missing. Equal values may be shown once.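 Grown in 96-well plates, cells were treated for 48 hours with each compound at five concentrations. Insufficient inhibition: endpoint recorded as highest concentration tested. Here, GI50 denotes the concentration required for 50% inhibition of growth.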 Activity calls are given as the source filed them. Cut-off read from the data, not from the text of the source: active = GI50 up to about 1.1 µM and inactive = higher. Square brackets hold non-standard residues; d marks the D form. Peptide text beside a SMILES is read from it. * marks the point of attachment. ξ: configuration not given here. X20 = COC1=CC(=O)N(C(=O)C(O*)C(C)C)C1Cc1ccccc1; ξNMe2Val = CC(C)C(C(=O)*)N(C)C; NMeV = CN[CH](C(=O)O)C(C)C

What follows are compounds tested on NCI-H322M (assay: growth of human tumour cells (NCI), 48 h).
With `CCN(C)c1nc(N(C)CC)c2nc(N(C)CC)nc(N(C)CC)c2n1` the GI50 was inactive: > 100 µM.
`CCOC(=O)c1ccc(N2C(=S)N(C(=O)c3ccccc3)C(=N/c3ccccc3)/C2=N\c2ccccc2)cc1` was tested, and the GI50 was inactive: > 100 µM.
In the case of `CCNc1nc(N)c(C(=O)c2cccs2)s1`, the GI50 is reported as inactive: 17.6 µM.
With `O=P1(Oc2ccccc2)N=P(c2ccccc2)(c2ccccc2)C=C(c2ccc(Cl)cc2)N1` (stereo not given) the GI50 was inactive: 13.3 µM.
In the case of `OCc1c2c(cc3c1CC1(C3)Cc3cc4c(c(CO)c3C1)CCC4)CCC2`, the GI50 is reported as inactive: 21.5 µM.
For `CC(C)=CC(=O)OC1C2C(C)C(=O)OC2C(O)C(C)C2C=CC(=O)C21C` (stereo not given), the GI50 was inactive: 5.24 µM.
`COc1ccc(C2[C@@H](Cl)C(=O)N2c2ccc(OC)cc2)cc1` (stereo not given in full) was tested, and the GI50 was inactive: 83.2 µM.
For `CC1=NOC(=O)C1/N=N/c1ccc(Br)c(C)c1` (stereo not given), the GI50 was inactive: 31.2 µM.
In the case of `CCOC(=O)NC(C(F)(F)F)(C(F)(F)F)P(=O)(OCC(C)C)OCC(C)C`, the GI50 is reported as inactive: 60.1 µM.
`CCCCCCCCCCCC(=O)OCCOCCOCCOCCOCCOCc1ccc(OC)cc1` was tested, and the GI50 was inactive: > 100 µM.
For `COC12c3ccccc3-c3ccccc3C1[C@H]1C(=O)OC(=O)[C@H]12` (stereo not given in full), the GI50 was inactive: > 10 µM.
In the case of `O=C1N[C@H]2C(=O)c3c(Br)sc(Br)c3[C@H]2O1`, the GI50 is reported as inactive: 14.6 µM.
In the case of `COc1ccc(OC)c(-c2cc(O)c3cc4c(cc3n2)OCO4)c1`, the GI50 is reported as inactive: 4.8 µM.
In the case of `C[C@H](OCc1ccccc1)C(=O)N1CCS(=O)(=O)N2CCC[C@H]2C1=O`, the GI50 is reported as inactive: > 100 µM.
`Oc1ccc2c(c1)OCC1c3ccccc3OC21` (stereo not given) was tested, and the GI50 was inactive: 41.4 µM.
In the case of `CSc1cc(Cl)c(C)cc1S(=O)(=O)NC(=O)NNc1ccc(C)cc1`, the GI50 is reported as inactive: 95.1 µM.
With `c1cc(CSc2ncnc3[nH]cnc23)ccn1` the GI50 was inactive: > 100 µM.
With `Cc1ccccc1-n1c2nc(=O)n(C)c(=O)c-2nc2ccccc21` the GI50 was inactive: 19.4 µM.
With `Clc1cccc(Cl)c1C1SCc2nc3cc4ccccc4cc3n21` (stereo not given) the GI50 was inactive: > 100 µM.
`Oc1nnnc2c1sc1ncccc12` was tested, and the GI50 was inactive: > 100 µM.
For `O=C1CCC2(CC1)SCCCS2`, the GI50 was inactive: > 100 µM.
For `FC(F)(F)c1cnc(N/N=C(/c2ccccc2)c2ccccn2)c(Cl)c1`, the GI50 was inactive: 3.61 µM.
For `O=C1c2cnccc2Cc2cccc3c2N1c1ccccc1S3`, the GI50 was inactive: 22.6 µM.
In the case of `COc1cc2ccc(C(=O)NCCCNC(=O)c3ccc4cc(OC)c(OC)cc4c3)cc2cc1OC`, the GI50 is reported as inactive: > 100 µM.
For `CC(CO)(CO)N1C(=O)C2C3C=CC(C3)C2C1=O` (stereo not given), the GI50 was inactive: > 100 µM.
For `O=C(Nc1ccccc1)C(=O)C(C(=O)c1ccccc1F)C1OC(=O)c2ccccc21` (stereo not given), the GI50 was inactive: 22.3 µM.
With `NC(CCSCCF)C(=O)O` (stereo not given) the GI50 was inactive: > 100 µM.
In the case of `Nc1nc2c(C(=O)O)c3ccc([N+](=O)[O-])cc3c(=O)n2c2ccccc12`, the GI50 is reported as inactive: 27.5 µM.
`NC(=O)C(=O)N/N=C1/c2ccccc2CC1C1(O)C(=O)Nc2c(Cl)cc(Cl)cc21` (stereo not given) was tested, and the GI50 was inactive: > 100 µM.
`CC(C)NC(=O)N(Nc1ccccc1)C(C)(C)C` was tested, and the GI50 was inactive: > 100 µM.
In the case of `Cc1cccc(C(=O)O)c1CC1NCCC2c3ccccc3NC12` (stereo not given), the GI50 is reported as inactive: > 100 µM.
`Cc1cnc(-c2ccccc2)o1` was tested, and the GI50 was inactive: > 100 µM.
`c1ccc(CSc2nc3ccccc3nc2-c2cccs2)cc1` was tested, and the GI50 was inactive: > 100 µM.
In the case of `CCOC(=O)Cc1[nH]c(C(=O)c2ccccc2)cc1C(=O)c1ccccc1`, the GI50 is reported as inactive: 52.8 µM.
For `Cc1cc2c(cc1C)[n+]([O-])c(C(=O)C/C(=N/OCCCc1ccccc1)C(=O)Nc1cc(Cl)ccc1Cl)c(C)[n+]2[O-]`, the GI50 was inactive: > 100 µM.
`CC1CC2OC(=O)CC2C[C@@H]1O[Si](C)(C)C(C)(C)C` (stereo not given in full) was tested, and the GI50 was inactive: > 100 µM.
In the case of `Cc1cc2c(cc1CO)N1Cc3cc(C)c(CO)cc3N(C2)C1`, the GI50 is reported as inactive: > 100 µM.
For `CCC1(N=[N+]=[N-])C(=O)Nc2cc(C)ccc2C1=O` (stereo not given), the GI50 was inactive: > 100 µM.
For `OCCCCn1cc(Cn2ncc3c(NCc4ccccc4)ncnc32)nn1`, the GI50 was inactive: > 100 µM.
`CSc1ccc(/C=C2\N=C(c3ccccc3)N(c3nc4ccc(Sc5ccccc5)cc4[nH]3)C2=O)cc1` was tested, and the GI50 was inactive: 26.7 µM.
In the case of `COc1ccc(C[C@]23CCC(=O)N2CCc2cc(OC)c(O)cc23)cc1O`, the GI50 is reported as inactive: > 100 µM.
In the case of `Nc1nc(Cl)cc(/N=N\c2ccccc2)n1`, the GI50 is reported as inactive: 41.7 µM.
For `O=c1c2ccccc2nc(-c2ccc(Cl)cc2)n1O`, the GI50 was inactive: 30.1 µM.
For `Cc1ccc(C)n2c1nc1ccccc12`, the GI50 was inactive: > 100 µM.
In the case of `CC(C)(C)OC(=O)NCCCNC1(c2cc3ccccc3s2)CCCCC1`, the GI50 is reported as inactive: 14.3 µM.
`O=C(Nc1cccc(C(F)(F)F)c1)c1cc(-c2ccccc2)nc(S)n1` was tested, and the GI50 was inactive: > 100 µM.
In the case of `COc1c(C(=O)O)oc2c(OC)cccc12`, the GI50 is reported as inactive: > 100 µM.
With `Cc1cc(C)c(S(=O)(=O)N(CCCN)OCCCON(CCCN)S(=O)(=O)c2c(C)cc(C)cc2C)c(C)c1` the GI50 was inactive: 1.87 µM.
With `COc1cc2cc(C(=O)N3CC(CCl)c4c3cc(NCCN)c3ccccc43)[nH]c2c(OC)c1OC` (stereo not given) the GI50 was active: < 0.01 µM.
With `CC(=O)O[C@H]1CC[C@@]2(C)C(CC[C@]3(C)C2CC[C@]2(C)Oc4c(C)cc(O)cc4C[C@@H]23)C1(C)C` (stereo not given in full) the GI50 was inactive: 10.6 µM.
`COc1cc(CC(=O)O)c([N+](=O)[O-])cc1OC` was tested, and the GI50 was inactive: > 100 µM.
`O=c1[nH]c(-c2ccccc2)nc2cc(Cl)ccc12` was tested, and the GI50 was inactive: > 100 µM.
In the case of `Nc1ccc2n[se]nc2c1`, the GI50 is reported as inactive: 97.5 µM.
`COc1cccc(NC(=O)/C(CC(=O)CC(c2ccccc2)c2c(O)c3ccccc3oc2=O)=N\NC(C)(C)C)c1OC` (stereo not given) was tested, and the GI50 was inactive: 45.1 µM.
In the case of `CC1=C(Br)C(=O)C(C)=C(Br)C1=O.Cc1c(O)c(Br)c(C)c(O)c1Br`, the GI50 is reported as inactive: 17.8 µM.
For `CCN1CCC(O)(c2ccc(Oc3ccc(C)cc3)cc2)C(C(=O)c2ccc(Oc3ccc(C)cc3)cc2)C1` (stereo not given), the GI50 was inactive: 13.3 µM.
With `CCc1cc(C(=O)OC)cn1C(=N)c1ccc(Cl)cc1` the GI50 was inactive: > 100 µM.
In the case of `CC(C)CC(=O)OC[n+]1cccc(-c2c(COC(=O)NC(C)C)c(COC(=O)NC(C)C)c3n2CCC3)c1`, the GI50 is reported as inactive: 53.6 µM.
For `CCOC(=O)c1ccc(/N=N/N(C)C(=O)C(C)N)cc1` (stereo not given), the GI50 was inactive: 78.7 µM.
`COC1=CC(=O)N(C(=O)C(OC(=O)C2CCCN2C(=O)C2CCCN2C(=O)C(C(C)C)N(C)C(=O)C(NC(=O)C(C(C)C)N(C)C)C(C)C)C(C)C)C1Cc1ccccc1` (stereo not given) (ξNMe2Val-V[NMeV]PP-X20; configuration not given here) was tested, and the GI50 was active: 0.00843 µM.
In the case of `CCOC(=O)C[C@@H]1C2(C=C[C@@]13CO3)OCC(C)(C)CO2`, the GI50 is reported as inactive: > 100 µM.
For `O=C(Nc1nncs1)NS(=O)(=O)n1cnc2ccccc21`, the GI50 was inactive: > 100 µM.
With `COc1cc(Nc2nnc3n2S(=O)(=O)c2cc(C)c(Cl)cc2S3)cc(OC)c1` the GI50 was inactive: 27.5 µM.
With `CO[C@H]1C=C[C@@]23c4cc5c(cc4CO[C@]2(O)CN(C)[C@H]3C1)OCO5` the GI50 was inactive: > 100 µM.
In the case of `COC1C=CC(C(=O)[N+]2=Cc3[nH]c4ccccc4c3CC2)O1` (stereo not given), the GI50 is reported as inactive: > 100 µM.
`O=C1CCSSCCC(=O)NCCN1` was tested, and the GI50 was inactive: > 100 µM.
With `CCOc1cc(NC(C)=O)ccc1C(=O)NN1C(=O)/C(=C/c2ccco2)N=C1c1ccccc1` the GI50 was inactive: > 100 µM.
In the case of `CCSC1SC(c2ccccc2)(c2ccccc2)c2ccccc21` (stereo not given), the GI50 is reported as inactive: 41.4 µM.
In the case of `N#CC(C#N)=C1CCC2C(=C(C#N)C#N)CCC12` (stereo not given), the GI50 is reported as inactive: > 100 µM.
For `CC1(C)Oc2ccc3c(=O)cc(-c4ccc(F)cc4)oc3c2C1C(=O)O` (stereo not given), the GI50 was inactive: > 100 µM.
With `O=C1C([P+](c2ccccc2)(c2ccccc2)c2ccccc2)=C([O-])C(=Cc2ccc(Cl)c(Cl)c2)C([O-])=C1[P+](c1ccccc1)(c1ccccc1)c1ccccc1` the GI50 was inactive: 3.95 µM.
With `Cc1nc2ccccc2c(=O)n1Nc1ccc(C(=O)O)cc1` the GI50 was inactive: > 100 µM.
In the case of `O=C(Cl)C1=C(c2ccccc2)C1c1ccccc1` (stereo not given), the GI50 is reported as inactive: > 100 µM.
`O=C(Oc1ccccn1)c1cc2cc(CCl)ccc2oc1=O` was tested, and the GI50 was inactive: 35.6 µM.
For `COc1ccc2c(c1)c(=Cc1ccc(N(C)C)cc1)c1cc(-c3ccccc3)[n+](C)n12`, the GI50 was inactive: 1.62 µM.
In the case of `O=P(O)(O)CN1CCNCCN(CP(=O)(O)O)CC1`, the GI50 is reported as inactive: > 40.5 µM.
In the case of `COc1cc(C)cc2c1C(=O)C(NC(C)=O)=CC2=O`, the GI50 is reported as inactive: > 100 µM.
For `O=C(CSc1nc2ccc(Cl)cc2c(=O)n1-c1ccccc1)N/N=C1\C(=O)Nc2ccc(F)cc21`, the GI50 was inactive: 3.1 µM.
In the case of `O=C(/C=C/c1ccccc1Cl)c1ccccc1Cl`, the GI50 is reported as inactive: 46.2 µM.
With `COc1cc2oc(-c3ccc4c(c3)OCO4)c(OC)c(=O)c2c(O)c1OC` the GI50 was inactive: > 50 µM.
In the case of `O=C(CC(=O)N1N=C(c2ccccc2)C(/N=N/c2ccccc2Cl)C1=O)Nc1ccccc1Cl` (stereo not given), the GI50 is reported as inactive: 36.5 µM.
With `C/C(=N\NC(=O)Nc1ccccc1Cl)c1ccc(O)cc1` the GI50 was inactive: > 100 µM.
With `CC1SC2=NC3=C(c4ccccc4C3=O)C(c3ccccc3Cl)N2C1=O` (stereo not given) the GI50 was inactive: > 100 µM.
`C/C(=N\Nc1nc2ccccc2n1C)c1cnccn1` was tested, and the GI50 was active: 0.307 µM.
In the case of `N#C/C(=C\c1cc(O)ccc1O)C(N)=O`, the GI50 is reported as inactive: 35.7 µM.
With `CN1CC(c2ccccc2)N(CCCCN2CC(c3ccccc3)N(C)CC2c2ccccc2)CC1c1ccccc1` (stereo not given) the GI50 was inactive: > 100 µM.
In the case of `COc1ccccc1/N=N/c1c(O)ccc2ccccc12`, the GI50 is reported as inactive: 43.8 µM and inactive: 55.1 µM.
For `COC(=O)C1[C@@H](C(=O)OC)C12C=Cc1ccccc1C=C2` (stereo not given in full), the GI50 was inactive: > 100 µM.
With `c1ccc2cc3c(cc2c1)nc1ccccn13` the GI50 was inactive: > 100 µM.
With `COc1ccc(-c2nc(-c3cnccn3)n(C3OC(CO)C(O)C(O)C3O)n2)cc1` (stereo not given) the GI50 was inactive: > 100 µM.
For `CCOC(=O)C(C#N)(Cc1c[nH]c2ccccc12)NC(C)=O` (stereo not given), the GI50 was inactive: > 100 µM.
With `N#Cc1nc(-c2cccc(-c3nc(C#N)c(N)o3)n2)oc1N` the GI50 was inactive: > 100 µM.
With `CC[C@@H]1CC[C@@H]2[C@H](CC[C@]3(C)[C@@H](O)CC[C@@H]23)[C@H]1C(=O)O` the GI50 was inactive: > 100 µM.
In the case of `CC(C)S(=O)(=O)ON1C(=O)c2ccc(N(C)C)cc2C1=O`, the GI50 is reported as inactive: > 52.4 µM.
With `N/N=c1\c2ccccc2c2ccc3c4ccccc4/c(=N\N)c3c12` the GI50 was inactive: > 100 µM.
